The source of these data is the supplement of paper PMC8674133.

Test [1] deals with SARS-CoV-2 Wuhan-Hu-1 spike pseudovirus. The test can be described thus: pseudovirus neutralization IC50; higher = weaker neutralization. The method, then: (§1)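 Single-round luciferase reporter pseudovirus mixed with antibody dilutions and put on 293T-ACE2 cells for 48 h; signal relative to no-antibody wells, four-parameter fit.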
The target is the same in test [2]. The test can be described thus: pseudovirus neutralization IC90; higher = weaker neutralization. The method, then:
as §1

The target of test [3] is SARS-CoV-2 Wuhan-Hu-1 spike receptor-binding domain. The test can be described thus: ELISA binding EC50; higher = weaker binding; ELISA of recombinant human antibody on coated antigen, from 10 µg/ml in fourfold dilutions; four-parameter fit. (In general: In an ELISA, binding on a coated surface is turned into a signal by an enzyme label.)

Recombinant human monoclonal antibodies (heavy:light variable regions). ELISA EC50 on the named antigen, from 10 µg/ml down; IC50 / IC90 against spike pseudovirus on 293T-ACE2 cells, 48 h; lower = stronger. Calls: IC50 above 1,000 ng/ml = non-neutralizing; EC50 above 2,000 ng/ml = non-binder. The source prints 1000 for neutralization that was not reached; it is given as >1000 ng/ml. A few antibodies were first reported in earlier work of the same group.

B1: C1183 (protein)
chain 1: EVQLVESGGGLVQPGGSLRLSCAASGIIVSRNYMSWVRQAPDKGLEWISVLYSGGSTFYADSVKGRFTISRHDSKNTLYLQMNSLRPEDTAVYYCARGEGYDIPFDPWGQGTLVTVSS
chain 2: QSALTQPPSASGSPGQSVTISCTGTSSDVGGNNYVSWYQQHPGKAPKLMIYEVGKRPSGVPDRFSGSKSGNTASLTVSGLQAEDEADYYCSSYAGSNNVVFGGGTKLTVL
With B1, the “pseudovirus neutralization IC50” value in test [1] came out at 0.0142 µg/mL. In test [2], the “pseudovirus neutralization IC90” value came to 0.0819 µg/mL. Moreover, the “ELISA binding EC50” value in test [3] was found to be 0.00249 µg/mL.

B2: C2421 (protein)
chain 1: EVQLVESGGNLVQPGGSLRLSCAASGFTFASYSMNWVRQAPGKGLEWVSYISRSSSTIYYSDSVKGRFTISRDNAKNSLYLQMNSLRVEDTAVYYCAGGILGLGSLHYYYGLDVWGQGTTVTVSS
chain 2: QSALTQTASVSGSPGQSITISCTGTSSDVGSYNLVSWYQQHPGKAPKLMIYDVSERPSGVSNRFSGSKSGNTASLTISGLQAEDEADYYCSSYAGSSKMIFGGGTKLTVL
Take B2: the “pseudovirus neutralization IC50” value in test [1] is more than 1 µg/mL. Moreover, the “pseudovirus neutralization IC90” value in test [2] was more than 1 µg/mL. Besides, the “ELISA binding EC50” value in test [3] was 0.00428 µg/mL.

B3: C1179 (protein)
chain 1: QVQLVESGGGVVQPGRSLRLSCAASGFTFRNYAMHWVRQAPGKGLEWVAVLLYDGSTKYNADSVKGRFTISRDNSKNTLYLQMNSLRAEDTALYYCAREPHCTGGVCDAFDMWGQGTMVTVSS
chain 2: DIQMTQSPSSLSASVGDRVTITCRASQSIINYLNWYQQKPGKAPKLLIYAASSLLSGVPSSFSGSGSGTDFTLTISSLQPEDFATYYCQQTYSTPYTFGPGTKVDIK
With B3, the “pseudovirus neutralization IC50” value in test [1] was 0.014 µg/mL. Further, in test [2], the “pseudovirus neutralization IC90” value worked out at 0.028 µg/mL. For the same molecule, the “ELISA binding EC50” value in test [3] was 0.0027 µg/mL.

B4: C1258 (protein)
chain 1: QVQLVQSGAEVKKPGASVKVSCKASTYTFSNYYIHWVRQAPGQGLEWMGVINPSAGSIAYAQKFQGRVTMTSDTSTSTVYMELSSLRSEDTALYFCARDFALIPASMGLEYWGQGTLVTVSS
chain 2: IQMTQSPSSLSASVGDRVTITCRASQGIRNDLGWYQQKPGKAPKLLIYAASSLQSGVPSRFSGSGSGTDFTLTISSLQPEDFATYYCLQDYNYPWTFGQGTKVEIK
With B4, in test [1], the “pseudovirus neutralization IC50” value was more than 1 µg/mL. For the same molecule, the “pseudovirus neutralization IC90” value in test [2] was more than 1 µg/mL. Also, the “ELISA binding EC50” value in test [3] turned out to be 0.00328 µg/mL.

B5: C1184 (protein)
chain 1: EVQLVESGGGLVQPGGSLRLSCAASGFTFSSYWMSWVRQAPGKGLEWVADIKQDGSEKYYVDSVKGRFTISRDNAKNSLYLQMNSLRAEDTAVYYCARDAYYYGDYDYWGQGTLVTVSS
chain 2: NFMLTQPHSVSESPGKTVTISCTGSSGSIASNYVQWYQQRPGSAPTTVIYEDNQRPSGVPDRFSGSIDSSSNSASLTISGLKTEDEADYYCQSYDSNKKVFGGGTKLTVL
B5: the “pseudovirus neutralization IC50” value in test [1] was determined as 0.158 µg/mL. In addition, in test [2], the “pseudovirus neutralization IC90” value is more than 1 µg/mL. For the same molecule, the “ELISA binding EC50” value in test [3] amounted to 0.00354 µg/mL.

B6: C1185 (protein)
chain 1: QVQLQESGPGLVQPSETLSLTCIVSGGSISDYYWSWIRQPPGKGLEWIGYMYYSGSTNYNPSLKSRVTLSLNASKKQISLKLTSVTAADTAVYYCARHKWLRGELDYWGQGTLVTVSS
chain 2: NFMLTQPHSVSESPGKTVTISCTGSGGSIASNYVQWYQQRPGRAPTTVIFEDNQSPSGVPDRFSGSIDSSTNSASLTISGLKTEDEADYYCQSFDHSNLVFGGGTKLTVL
In the case of B6, the “pseudovirus neutralization IC50” value in test [1] was found to be 0.105 µg/mL. Further, the “pseudovirus neutralization IC90” value in test [2] worked out at 0.769 µg/mL. Moreover, the “ELISA binding EC50” value in test [3] stood at 0.00289 µg/mL.

B7: C1427 (protein)
chain 1: QVQLQESGPGLVKPSETLSLTCTVSGGSINSYLWSWIRQPPGMGLAWIGYISYTGSTNYSPSLKSRVSISIDTSKNQFSLKLNSVTAADTAVYYCARHRLGLILGSDYWGQGKLVTVSS
chain 2: NFMLTQPHSVSESPGKTVTISCTGSSGSIASNYVQWYQQRPGSAPTTVIYEDNQRPSGVPDRFSGSIDSSSNSASLTISGLKTEDEADYYCQSYDSGTWVFGGGTKLTVL
As for B7, the “pseudovirus neutralization IC50” value in test [1] turned out to be 0.0849 µg/mL. Besides, the “pseudovirus neutralization IC90” value in test [2] amounted to 0.535 µg/mL. In addition, the “ELISA binding EC50” value in test [3] stood at 0.00561 µg/mL.

B8: C1181 (protein)
chain 1: EVQLVQSGGGLVQPGGSLRLSCAASGFTFSRDDMHWVRQRTGKGLEWVSGIGTNRDKYYEDSVKGRFTISRENGKNSLYLQMNSLRDGDTAVYYCARGVGGTVMDPYRFDYWGQGTLVTVSS
chain 2: DIQMTQSPSSLSASLGDRVTITCRASQRIGNYLNWYQQRPGKAPKLLIYAASSLQSGVPSRFSGSGSGTDFTLTISSLQPDDFATYYCQQSYSSPPWTFGQGTKVEIK
In the case of B8, in test [1], the “pseudovirus neutralization IC50” value was found to be 0.369 µg/mL. In test [2], the “pseudovirus neutralization IC90” value is more than 1 µg/mL. Besides, the “ELISA binding EC50” value in test [3] was found to be 0.00227 µg/mL.

B9: C1255 (protein)
chain 1: QVQLVQSGAEVKKPGASVKVSCKASGYTFTNYYMHWVRQAPGQGLEWMGIINPSGGSTTYAQKVQGRVTLTRDTSTSTVYMELNSLRSEDTAVYYCARDENFIPARGAMDVWGQGTTVTVSS
chain 2: not shown
With B9, in test [1], the “pseudovirus neutralization IC50” value is more than 1 µg/mL. Also, in test [2], the “pseudovirus neutralization IC90” value is more than 1 µg/mL. Moreover, the “ELISA binding EC50” value in test [3] was 0.0757 µg/mL.

B10: C1180 (protein)
chain 1: QVQLVESGGGVVQPGRSLRLSCAASGFTFSTYGMHWVRQAPGKGLEWVAAVYYDGSNKYYVDSVKGRFTISRDNSKNTLYLQMNSLRADDTAVYYCASHSAGYGDSYETFDIWGQGTMVTVSS
chain 2: EIVMTQSPATLPVSPGERATLSCRASQSVGTNLAWYQQKPGQAPRLLINGASTRATGIPGRFSGSGSGTDFTLTINSLQSEDSAVYYCQQYDNWPPFTFGQGTKLEIK
In the case of B10, the “pseudovirus neutralization IC50” value in test [1] came out at 0.00673 µg/mL. Further, the “pseudovirus neutralization IC90” value in test [2] was found to be 0.0427 µg/mL. For the same molecule, the “ELISA binding EC50” value in test [3] is 0.00237 µg/mL.

B11: C1260 (protein)
chain 1: QVQLQESGPGLVKPSGTLSLTCAVSGGSITSVHWWSWVRQSPGKGLEWIGEIYHSGNSNYNPSLKSRVTISVDKSKNQFSLKLNSVTAADTAVYYCARDREDGMGLWYFDLWGRGTLVTVSS
chain 2: QSVLTQPPSASGTPGQRVTISCSGSSSNIGSEYVYWYQQLPGTAPKLLIYRNNQRPSGVPDRFSGSKSGTSASLAISGLRSEDEADYYCAAWDDSLSGRVFGGGTKLTVL
Turning to B11, the “pseudovirus neutralization IC50” value in test [1] is 0.0246 µg/mL. Further, the “pseudovirus neutralization IC90” value in test [2] was 0.14 µg/mL. Besides, in test [3], the “ELISA binding EC50” value amounted to 0.00269 µg/mL.

B12: C1182 (protein)
chain 1: QLQLQESGPGLVKPSETLSLTCTVSGDSISSSNYYWGWIRQPPGKGLEWIGSIYYTGSTYYNPSLKSRVTISVDTSKNQFSLNLSSVIAADTAVYYCARRRLPPSSYYSAMDVWGQGTTVTVSS
chain 2: QSALTQPASVSGSPGQSITISCTGTSSDVGGYNYVSWYQQYPGKAPKIMIYDVSNRPSGVSNRFSGSKSGNTASLTISGLQADDEADYYCSSYTSSSTEVFGGGTKLTVL
Regarding B12, the “pseudovirus neutralization IC50” value in test [1] was more than 1 µg/mL. The “pseudovirus neutralization IC90” value in test [2] was more than 1 µg/mL. Besides, in test [3], the “ELISA binding EC50” value worked out at 0.00595 µg/mL.

B13: C1249 (protein)
chain 1: EVQLVESGGGLVQPGGSLRLSCAASEIIVSSNYMIWVRQAPGKGLEWVSVIYSGGSTFYADSVKGRFTISRHNSKNTLFLQMNSLRPEDSAVYYCARALPFFGDLGYFDFWGRGTLVTVSS
chain 2: DIQMTQSPSSLSASVGDRVTITCRASQSIINYLNWYQQKPGEAPKLLIYAASSLHSGVPSRFSGSGSGTDFTLTISSLQPADFATYFCQQTYSTPGTTFGQGTKLEIK
Consider B13, for which the “pseudovirus neutralization IC50” value in test [1] was determined as 0.00797 µg/mL. For the same molecule, the “pseudovirus neutralization IC90” value in test [2] was determined as 0.0226 µg/mL. In addition, in test [3], the “ELISA binding EC50” value was 0.00258 µg/mL.

B14: C1248 (protein)
chain 1: QVQLQESGPGLVKPSETLSLTCTVSGGSFSSYFWNWIRQPPGKGLEWIGHIYYSGTTNYNPSLKSRVTISVDTSKTHFSLRLSSVTAADTAVYYCARQGWLRGNFDLWGRGTLVTVSS
chain 2: NFMLTQPHSVSESPGKTVTISCTGSSGSIASNYVQWYQQRPGSAPTTVIYEDTQRPSGVPDRFSGSIDSSSNSASLTISGLKTEDEADYYCQSYDTTFSVVFGGGTKLTVL
Consider B14, for which the “pseudovirus neutralization IC50” value in test [1] is 0.0854 µg/mL. Also, the “pseudovirus neutralization IC90” value in test [2] was 0.542 µg/mL. The “ELISA binding EC50” value in test [3] was determined as 0.0037 µg/mL.

B15: C1257 (protein)
chain 1: QVQLVQSGAEVKKPGASVKVSCKASGYTFTTYYIHWVRQAPGQGLEWMGLINPDAASTTYAQKFQGRVTMTTDTSTSTVYMELSSLRSEDTAVYFCARDEVLIPAARALDYWGQGSLVTVSS
chain 2: EIVLTQSPATLSLSPGERATLSCRASQSVSSYLAWYQQKPGQAPRLLIYDASNRATGIPGRFSGSGSGTEFTLTISSLEPEDFAVYYCQQRSNWPRIFTFGPGTKVDIK
Consider B15, for which, in test [1], the “pseudovirus neutralization IC50” value is more than 1 µg/mL. In test [2], the “pseudovirus neutralization IC90” value was more than 1 µg/mL. Moreover, the “ELISA binding EC50” value in test [3] stood at 0.00303 µg/mL.

B16: C1425 (protein)
chain 1: EVQLVESGGGLVQPGGSLRLSCAASGITVSSNYMNWVRQAPGKGLEWISVIYSGGSTFYADSVKGRFTISRHNSKNTLYLQMNSLRAEDTAVYYCARFGSYGRRLYDSWGQGTLVTVSS
chain 2: DIQMTQSPSSLSASVGDRVTITCQASQDISNYLNWYQQKPGKAPKLLIFDASNLETGVPSRFSGSGSGTDFTFTISSLQPEDIATYYCQQYDNLPVTFGGGTKVEIK
Consider B16, for which, in test [1], the “pseudovirus neutralization IC50” value amounted to 0.00659 µg/mL. For the same molecule, in test [2], the “pseudovirus neutralization IC90” value worked out at 0.0295 µg/mL. In addition, the “ELISA binding EC50” value in test [3] was found to be 0.002 µg/mL.

B17: C1262 (protein)
chain 1: QVQLVESGGGVVQPGRSLRLSCAASGFTPTSYAMHWVRQAPGKGLEHLAFISYDGSNKYYADSVKGRFTISRDNSKNTLYLQMSSLRAEDTALYYCAITFPRGELTGILHYWGQGTLVTVSS
chain 2: SYELTQPPSVSVAPGQTARITCGGDNIGSKNVHWYQQKPGQAPVLVVYDDNDRPSGIPERFSGSNSGNTATLTISRVEAGDEADYYCQVWDSNSDHFWVFGGGTKLTVL
As for B17, in test [1], the “pseudovirus neutralization IC50” value is 0.362 µg/mL. Besides, in test [2], the “pseudovirus neutralization IC90” value was more than 1 µg/mL. Further, in test [3], the “ELISA binding EC50” value was found to be 0.00246 µg/mL.
